Test results taken from publication PMC10668032.
Some of the results follow. At the low end of the ranking the order means little.

biological target: SIX1 homeodomain (reference allele) (UniProt Q15475); experiment: universal protein binding microarray; conditions: Universal all-10-mer PBM (8x60K, AMADID 030236), 300 nM GST-tagged protein, Alexa Fluor 488 anti-GST; buffer, salt, pH and temperature not stated; high values mean tight binding; most listed sequences are background and not binding sites; double strand, one strand shown

Sequence	binding signal
CCCTCGCA	0.0847 E-score
CATGGGAC	-0.0574 E-score
AACAATTC	-0.38 E-score
ACATCGGG	-0.0059 E-score
ATACGTCC	0.24 E-score
CATGTAAA	-0.195 E-score
ATCAGTAA	0.296 E-score
AAGCTCGA	-0.0115 E-score
ACTAGCCT	-0.116 E-score
ATGCAGTC	-0.0683 E-score
GGGGTCTA	0.194 E-score
GCCGCCGA	-0.00101 E-score
TCTAAGCA	-0.132 E-score
CCTATATA	0.138 E-score
GAGATTTA	-0.0915 E-score
TATCGCGA	0.395 E-score
AAGACCAC	-0.284 E-score
CAGGCTTA	-0.142 E-score
TCCTATCA	0.307 E-score
CTACACTA	0.0388 E-score
AAGGACCG	-0.304 E-score
CAATCGGA	0.198 E-score
CTAACTTA	-0.0631 E-score
TATCAAAA	0.342 E-score
GCACTGTA	-0.124 E-score

Sequence	binding signal
TCGCGGAA	0.0925 E-score
ATCTGGCA	0.23 E-score
GACGACTC	-0.113 E-score
ACGACCAC	-0.231 E-score
GCCAACAC	-0.00375 E-score
ACTCACTG	-0.0843 E-score
AACGTTCC	-0.286 E-score
ACATAACA	-0.199 E-score
CGATACTA	0.424 E-score
AACGAACG	-0.304 E-score
ACTGTGAA	-0.195 E-score
AGTATCTC	0.376 E-score
ACAATATC	0.309 E-score
AGATCACT	0.385 E-score
AGCATAAC	-0.00911 E-score
CCTCATCG	0.185 E-score
ACTAAAAG	-0.0599 E-score
CTTTCTCC	-0.222 E-score
AAGCTAAC	-0.212 E-score
CAGTAGGC	-0.207 E-score
AAGAAAGG	-0.0535 E-score
AATAGGAG	0.0185 E-score
AAACAGAA	-0.212 E-score
AAGCCTAC	-0.139 E-score
TAGCGAGA	0.0304 E-score

Sequence	binding signal
AGTGCAAG	-0.139 E-score
GAGTGTCA	0.219 E-score
ACATAAGT	-0.175 E-score
AGTGTGTC	-0.0591 E-score
CCAGCTCA	0.0811 E-score
ACGGCCCT	-0.115 E-score
GTGGAACA	-0.118 E-score
AACACGCG	-0.0494 E-score
AGACAACT	-0.168 E-score
GAGGTCAC	-0.182 E-score
CTTTCCAA	-0.192 E-score
TGGTGCAA	-0.215 E-score
ACACAGGA	0.065 E-score
CGGACCGA	0.0499 E-score
CCCGCATA	0.127 E-score
AGTCGCTA	-0.106 E-score
GTTGTAAA	-0.132 E-score
GTAAATAA	-0.162 E-score
CGCGGTCC	-0.134 E-score
CTTTTTTC	-0.151 E-score
GCCCTATA	0.0666 E-score
AAGCAGGG	-0.0764 E-score
CTGCCCCC	-0.16 E-score
CTCTCTGC	-0.0385 E-score
TTAGAGAA	-0.234 E-score

Sequence	binding signal
AACTTACC	-0.118 E-score
GCCCGCTA	-0.0884 E-score
GATGCCCC	0.101 E-score
GAATAAAC	-0.117 E-score
CATCCATA	0.081 E-score
AAGTCATA	-0.0827 E-score
CAATGTAC	-0.135 E-score
TAGGACGA	0.0643 E-score
ACAGGCGC	-0.206 E-score
GTCTAGAA	-0.0166 E-score
AATCCGTA	0.138 E-score
AGTTGATA	0.406 E-score
CGGTCGCA	-0.169 E-score
AGGCCGCA	-0.126 E-score
CTTAGATA	0.19 E-score
TCACAGCA	0.00916 E-score
CGCCTACC	-0.162 E-score
CGAGTCGC	-0.0367 E-score
CCCGCGAC	-0.0253 E-score
CGATGTCC	-0.209 E-score
GGTGAACA	-0.229 E-score
ACAGCGAC	-0.164 E-score
CCCATCTA	0.0154 E-score
AGCGGGTG	0.059 E-score
CTGTAAAG	-0.146 E-score

Sequence	binding signal
GTTATCAA	0.0902 E-score
ACTCGACT	-0.043 E-score
ATTGATTG	-0.0121 E-score
AATAAAAA	-0.23 E-score
CATGGAAG	-0.125 E-score
CACAGTGG	0.00931 E-score
ACGGTAAC	-0.0183 E-score
CAGCGATA	0.359 E-score
CATGAGGA	0.147 E-score
GACGTTCC	-0.248 E-score
TACGCCGA	-0.0265 E-score
GCAAGGAC	-0.257 E-score
AAACATAA	-0.108 E-score
CGTTCTCA	0.0662 E-score
AACGGCGA	0.107 E-score
CACAACTG	-0.0727 E-score
CGCGATGC	-0.00696 E-score
AATTTCCT	-0.0683 E-score
AGTAGATA	0.334 E-score
GTAGCGTA	0.00387 E-score
CCTCTGCG	-0.0705 E-score
ATTACCAA	-0.209 E-score
CTAGCTTC	-0.147 E-score
GGAACTCC	-0.262 E-score
ACCAATAG	-0.0255 E-score

Sequence	binding signal
CTCCCCGA	0.0232 E-score
CGCTGCGC	-0.162 E-score
ACAACTTG	-0.147 E-score
CCGTCTTC	-0.131 E-score
AGGACATA	-0.102 E-score
TCGCTTAA	-0.124 E-score
GATGTGCA	-0.21 E-score
AGCCAGTA	-0.0381 E-score
CACGTTGG	-0.135 E-score
CGAAATTC	-0.205 E-score
AATCTTGC	-0.162 E-score
AGCGGTGG	-0.0839 E-score
AGCAATAT	0.143 E-score
ATGCCGAC	0.103 E-score
ACCTTCCC	-0.0278 E-score
ATGAGCTC	0.166 E-score
ACCGTAGG	-0.254 E-score
CCCACCGC	-0.0305 E-score
AATCTTAA	-0.27 E-score
AAACATCG	-0.179 E-score
AAATGTAG	-0.194 E-score
CCCTGAAA	-0.0661 E-score
GCATGCGA	0.0225 E-score
ACGGAACG	-0.161 E-score
CGATAGAC	0.0748 E-score

Sequence	binding signal
AAGAGTCT	-0.275 E-score
TCCCTAGA	0.0868 E-score
AGTCAAGG	-0.187 E-score
CCAGGCGC	-0.127 E-score
AGAAAAAC	-0.259 E-score
CGATAGTC	0.167 E-score
CTTATTAC	0.044 E-score
GCTCGCAA	-0.104 E-score
CGGCGATA	0.348 E-score
GGTGCACC	0.0775 E-score
ACTTCTGA	-0.218 E-score
GTATGAAC	0.208 E-score
CCAGGTGC	-0.0328 E-score
AGTCATGG	-0.0657 E-score
ACACCAGA	0.27 E-score
AGCTGAAG	-0.208 E-score
AGATTGCC	-0.216 E-score
CTACTCCC	0.173 E-score
ACCGTAGC	-0.112 E-score
AGTGGTGA	-0.178 E-score
ACAAGCGA	-0.0406 E-score
GGCCGAAC	-0.197 E-score
